IC50 is the fitted dose that halves viability relative to control wells, and lower means more sensitive; where the fit passes the top or lowest dose, that dose stands as a limit. The AUC spans the tested range (256-fold, ending at the top dose) of the same fit; values near 1 show little effect. The top dose, if marked as inferred, is not printed in the source and was worked back from the curve model.
Compound: C=CC(=O)Nc1cccc(Nc2nc(NC3CCC(N(C)C)CC3)nc3c2ncn3C(C)C)c1 [WZ3105]
Assay: Viability of human cancer cell lines after 72 h of drug (GDSC screen)
Settings: top dose inferred
Experimental: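 Human cancer cell lines in 384-well plates, medium with 10% serum, drug for 72 h over a 256-fold dose range (nine 2-fold or five 4-fold steps up to the top dose). Adherent lines were fixed and stained with the nucleic acid dye Syto60, suspension lines read with resazurin; signal relative to control wells, capped at 0 and 100%. One two-parameter sigmoid per drug and line, fitted in a mixed model over all curves with the slope shared within a line.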

| Cell Line | AUC | IC50 |
| --- | --- | --- |
| NH-12 (neuroblastoma, adherent, top dose 1.28 µM) | 0.935 | > 1.28 µM |
| NKM-1 (acute myeloid leukaemia, suspension, top dose 1.28 µM) | 0.32 | 0.0247 µM |
| NMC-G1 (glioma, adherent, top dose 1.28 µM) | 0.898 | > 1.28 µM |
| NOMO-1 (acute myeloid leukaemia, suspension, top dose 1.28 µM) | 0.545 | 0.108 µM |
| NOS-1 (osteosarcoma, adherent, top dose 1.28 µM) | 0.807 | 0.845 µM |
| NTERA-2 cl.D1 (testis, adherent, top dose 1.28 µM) | 0.87 | 1.17 µM |
| NU-DUL-1 (B-cell lymphoma, suspension, top dose 1.28 µM) | 0.498 | 0.0793 µM |
| NUGC-3 (stomach, adherent, top dose 1.28 µM) | 0.903 | > 1.28 µM |
| NUGC-4 (stomach, adherent, top dose 1.28 µM) | 0.952 | > 1.28 µM |
| NY (osteosarcoma, adherent, top dose 1.28 µM) | 0.959 | > 1.28 µM |
| OACM5-1 (oesophagus, semi-adherent, top dose 1.28 µM) | 0.627 | 0.187 µM |
| OACp4C (oesophagus, adherent, top dose 1.28 µM) | 0.605 | 0.165 µM |
| OAW-28 (ovary, adherent, top dose 1.28 µM) | 0.811 | 0.915 µM |
| OAW-42 (ovary, adherent, top dose 1.28 µM) | 0.913 | > 1.28 µM |
| OC-314 (ovary, adherent, top dose 1.28 µM) | 0.828 | 0.644 µM |
| OCI-AML2 (acute myeloid leukaemia, suspension, top dose 1.28 µM) | 0.693 | 0.237 µM |
| OCI-AML3 (acute myeloid leukaemia, suspension, top dose 1.28 µM) | 0.508 | 0.0838 µM |
| OCI-AML5 (acute myeloid leukaemia, suspension, top dose 1.28 µM) | 0.545 | 0.105 µM |
| OCI-LY-19 (B-cell lymphoma, suspension, top dose 1.28 µM) | 0.582 | 0.132 µM |
| OCI-M1 (acute myeloid leukaemia, suspension, top dose 1.28 µM) | 0.799 | 0.453 µM |
| OCUB-M (breast, adherent, top dose 1.28 µM) | 0.559 | 0.113 µM |

| Cell Line | AUC | IC50 |
| --- | --- | --- |
| OCUM-1 (stomach, adherent, top dose 1.28 µM) | 0.915 | > 1.28 µM |
| OE19 (oesophagus, adherent, top dose 1.28 µM) | 0.957 | > 1.28 µM |
| OE21 (oesophagus, adherent, top dose 1.28 µM) | 0.89 | > 1.28 µM |
| OE33 (oesophagus, adherent, top dose 1.28 µM) | 0.91 | > 1.28 µM |
| OMC-1 (cervix, adherent, top dose 1.28 µM) | 0.979 | > 1.28 µM |
| ONS-76 (medulloblastoma, adherent, top dose 1.28 µM) | 0.556 | 0.115 µM |
| OPM-2 (myeloma, suspension, top dose 1.28 µM) | 0.941 | > 1.28 µM |
| OS-RC-2 (kidney, adherent, top dose 1.28 µM) | 0.921 | > 1.28 µM |
| OSC-19 (head and neck, adherent, top dose 1.28 µM) | 0.93 | > 1.28 µM |
| OSC-20 (head and neck, adherent, top dose 1.28 µM) | 0.938 | > 1.28 µM |
| OV-7 (ovary, adherent, top dose 1.28 µM) | 0.907 | > 1.28 µM |
| OV-17R (ovary, adherent, top dose 1.28 µM) | 0.973 | > 1.28 µM |
| OV-56 (ovary, adherent, top dose 1.28 µM) | 0.972 | > 1.28 µM |
| OV-90 (ovary, adherent, top dose 1.28 µM) | 0.826 | 1.09 µM |
| OVCA420 (ovary, adherent, top dose 1.28 µM) | 0.977 | > 1.28 µM |
| OVCA433 (ovary, adherent, top dose 1.28 µM) | 0.911 | > 1.28 µM |
| OVCAR-3 (ovary, adherent, top dose 1.28 µM) | 0.987 | > 1.28 µM |
| OVCAR-4 (ovary, adherent, top dose 1.28 µM) | 0.852 | > 1.28 µM |
| OVCAR-5 (ovary, adherent, top dose 1.28 µM) | 0.703 | 0.34 µM |
| OVCAR-8 (ovary, adherent, top dose 1.28 µM) | 0.868 | 0.968 µM |
| OVISE (ovary, adherent, top dose 1.28 µM) | 0.741 | 0.499 µM |

| Cell Line | AUC | IC50 |
| --- | --- | --- |
| OVK-18 (ovary, adherent, top dose 1.28 µM) | 0.985 | > 1.28 µM |
| OVKATE (ovary, adherent, top dose 1.28 µM) | 0.854 | > 1.28 µM |
| OVMIU (ovary, adherent, top dose 1.28 µM) | 0.761 | 0.562 µM |
| OVTOKO (ovary, adherent, top dose 1.28 µM) | 0.976 | > 1.28 µM |
| P12-ICHIKAWA (T-cell lymphoblastic leukaemia, suspension, top dose 10.24 µM) | 0.212 | 0.119 µM |
| P30-OHK (lymphoblastic leukaemia, suspension, top dose 1.28 µM) | 0.427 | 0.0524 µM |
| P31-FUJ (acute myeloid leukaemia, suspension, top dose 1.28 µM) | 0.941 | > 1.28 µM |
| P32-ISH (Burkitt lymphoma, suspension, top dose 1.28 µM) | 0.86 | 0.67 µM |
| PA-1 (ovary, adherent, top dose 1.28 µM) | 0.669 | 0.211 µM |
| PA-TU-8902 (pancreas, adherent, top dose 1.28 µM) | 0.787 | 0.663 µM |
| PA-TU-8988T (pancreas, adherent, top dose 1.28 µM) | 0.825 | 0.771 µM |
| PANC-02-03 (pancreas, adherent, top dose 1.28 µM) | 0.799 | 0.758 µM |
| PANC-03-27 (pancreas, adherent, top dose 1.28 µM) | 0.659 | 0.215 µM |
| PANC-04-03 (pancreas, adherent, top dose 1.28 µM) | 0.904 | > 1.28 µM |
| PANC-08-13 (pancreas, adherent, top dose 1.28 µM) | 0.754 | 0.545 µM |
| PANC-10-05 (pancreas, adherent, top dose 1.28 µM) | 0.72 | 0.408 µM |
| PC-3 (prostate, adherent, top dose 1.28 µM) | 0.827 | 1.02 µM |
| PC-3 [JPC-3] (lung adenocarcinoma, adherent, top dose 1.28 µM) | 0.747 | 0.526 µM |
| PC-14 (lung adenocarcinoma, adherent, top dose 1.28 µM) | 0.638 | 0.183 µM |
| PCI-4B (head and neck, adherent, top dose 1.28 µM) | 0.721 | 0.325 µM |
| PCI-6A (head and neck, adherent, top dose 1.28 µM) | 0.717 | 0.323 µM |

| Cell Line | AUC | IC50 |
| --- | --- | --- |
| PCI-15A (head and neck, adherent, top dose 1.28 µM) | 0.829 | 0.808 µM |
| PCI-30 (head and neck, adherent, top dose 1.28 µM) | 0.961 | > 1.28 µM |
| PCI-38 (head and neck, adherent, top dose 1.28 µM) | 0.788 | 0.565 µM |
| PE/CA-PJ15 (head and neck, adherent, top dose 1.28 µM) | 0.945 | > 1.28 µM |
| PEO1 (ovary, adherent, top dose 1.28 µM) | 0.987 | > 1.28 µM |
| PF-382 (T-cell lymphoblastic leukaemia, suspension, top dose 10.24 µM) | 0.132 | 0.055 µM |
| PFSK-1 (medulloblastoma, adherent, top dose 1.28 µM) | 0.737 | 0.401 µM |
| PL4 (pancreas, adherent, top dose 1.28 µM) | 0.929 | > 1.28 µM |
| PL18 (pancreas, adherent, top dose 1.28 µM) | 0.84 | 0.871 µM |
| PL-21 (acute myeloid leukaemia, suspension, top dose 1.28 µM) | 0.578 | 0.136 µM |
| PSN1 (pancreas, adherent, top dose 1.28 µM) | 0.629 | 0.17 µM |
| QGP-1 (pancreas, adherent, top dose 1.28 µM) | 0.759 | 0.736 µM |
| QIMR-WIL (acute myeloid leukaemia, suspension, top dose 1.28 µM) | 0.732 | 0.357 µM |
| RC-K8 (B-cell lymphoma, suspension, top dose 1.28 µM) | 0.963 | > 1.28 µM |
| RCC10RGB (kidney, adherent, top dose 1.28 µM) | 0.954 | > 1.28 µM |
| RCC-AB (kidney, adherent, top dose 1.28 µM) | 0.911 | > 1.28 µM |
| RCC-ER (kidney, adherent, top dose 1.28 µM) | 0.98 | > 1.28 µM |
| RCC-FG2 (kidney, adherent, top dose 1.28 µM) | 0.978 | > 1.28 µM |

Source: the supplement of paper PMC4967469
